# Data from the supplement of paper PMC8728848.
# The other results are listed elsewhere or left out.
# How the values were obtained:
# Assay in all cases: glycan array binding signal (z-score within array); higher = stronger binding
# Conditions in all cases: glycan notation: IUPAC condensed, linker removed; mutation: A146Q
# [1] = target: Neu5Ac(a2-3)Gal(b1-4)[Fuc(a1-3)]GlcNAc(b1-3)GalNAc
# Procedure, shortened: (§1)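 The binding signal is a Z-score computed within each array and averaged over linkers. Arrays of the same protein sequence at different concentrations or buffers were also averaged together. Data originate from 3228 arrays in the Consortium for Functional Glycomics database, kept only where the protein sequence was available.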
# [2] = target: Neu5Ac(a2-3)Gal(b1-4)[Fuc(a1-3)]GlcNAc(b1-6)[Gal(b1-3)]GalNAc
# Procedure, shortened: as §1
# [3] = target: Neu5Ac(a2-3)Gal(b1-4)[Fuc(a1-3)]GlcNAc(b1-6)[Neu5Ac(a2-3)Gal(b1-3)]GalNAc
# Procedure, shortened: as §1
# [4] = target: Neu5Ac(a2-3)Gal(b1-4)[Fuc(a1-3)]GlcNAc6S
# Procedure, shortened: as §1
# [5] = target: Neu5Ac(a2-3)Gal6S(b1-4)GlcNAc
# Procedure, shortened: as §1
# [6] = target: Neu5Ac(a2-3)Gal6S(b1-4)[Fuc(a1-3)]GlcNAc
# Procedure, shortened: as §1
# [7] = target: Neu5Ac(a2-3)GalNAc
# Procedure, shortened: as §1
# [8] = target: Neu5Ac(a2-3)GalNAc(b1-4)GlcNAc
# Procedure, shortened: as §1
# [9] = target: Neu5Ac(a2-3)[GalNAc(b1-4)]Gal(b1-4)Glc
# Procedure, shortened: as §1
# [10] = target: Neu5Ac(a2-3)[GalNAc(b1-4)]Gal(b1-4)GlcNAc
# Procedure, shortened: as §1
# [11] = target: Neu5Ac(a2-3)[GalNAc(b1-4)]Gal(b1-4)GlcNAc(b1-3)GalNAc
# Procedure, shortened: as §1
# [12] = target: Neu5Ac(a2-3)[Neu5Ac(a2-6)]GalNAc
# Procedure, shortened: as §1
# [13] = target: Neu5Ac(a2-6)Gal
# Procedure, shortened: as §1
# [14] = target: Neu5Ac(a2-6)Gal(b1-4)Glc
# Procedure, shortened: as §1
# [15] = target: Neu5Ac(a2-6)Gal(b1-4)GlcNAc
# Procedure, shortened: as §1
# [16] = target: Neu5Ac(a2-6)Gal(b1-4)GlcNAc(b1-2)Man(a1-3)Man(b1-4)GlcNAc(b1-4)GlcNAc
# Procedure, shortened: as §1
# [17] = target: Neu5Ac(a2-6)Gal(b1-4)GlcNAc(b1-2)Man(a1-3)[Gal(b1-4)GlcNAc(b1-2)Man(a1-6)]Man(b1-4)GlcNAc(b1-4)GlcNAc
# Procedure, shortened: as §1
# [18] = target: Neu5Ac(a2-6)Gal(b1-4)GlcNAc(b1-2)Man(a1-3)[GlcNAc(b1-2)Man(a1-6)]Man(b1-4)GlcNAc(b1-4)GlcNAc
# Procedure, shortened: as §1
# [19] = target: Neu5Ac(a2-6)Gal(b1-4)GlcNAc(b1-2)Man(a1-3)[GlcNAc(b1-2)Man(b1-4)GlcNAc(b1-2)Man(a1-6)]Man(b1-4)GlcNAc(b1-4)GlcNAc
# Procedure, shortened: as §1
# [20] = target: Neu5Ac(a2-6)Gal(b1-4)GlcNAc(b1-2)Man(a1-3)[Man(a1-6)]Man(b1-4)GlcNAc(b1-4)GlcNAc
# Procedure, shortened: as §1
# [21] = target: Neu5Ac(a2-6)Gal(b1-4)GlcNAc(b1-2)Man(a1-3)[Neu5Ac(a2-6)Gal(b1-4)GlcNAc(b1-2)Man(a1-6)]Man(b1-4)GlcNAc(b1-4)GlcNAc
# Procedure, shortened: as §1
# [22] = target: Neu5Ac(a2-6)Gal(b1-4)GlcNAc(b1-2)Man(a1-6)Man(b1-4)GlcNAc(b1-4)GlcNAc
# Procedure, shortened: as §1
# [23] = target: Neu5Ac(a2-6)Gal(b1-4)GlcNAc(b1-2)Man(a1-6)[Gal(b1-4)GlcNAc(b1-2)Man(a1-3)]Man(b1-4)GlcNAc(b1-4)GlcNAc
# Procedure, shortened: as §1
# [24] = target: Neu5Ac(a2-6)Gal(b1-4)GlcNAc(b1-2)Man(a1-6)[GlcNAc(b1-2)Man(a1-3)]Man(b1-4)GlcNAc(b1-4)GlcNAc
# Procedure, shortened: as §1
# [25] = target: Neu5Ac(a2-6)Gal(b1-4)GlcNAc(b1-2)Man(a1-6)[Man(a1-3)]Man(b1-4)GlcNAc(b1-4)GlcNAc
# Procedure, shortened: as §1
# [26] = target: Neu5Ac(a2-6)Gal(b1-4)GlcNAc(b1-3)Gal(b1-3)GlcNAc
# Procedure, shortened: as §1
# [27] = target: Neu5Ac(a2-6)Gal(b1-4)GlcNAc(b1-3)Gal(b1-4)GlcNAc
# Procedure, shortened: as §1
# [28] = target: Neu5Ac(a2-6)Gal(b1-4)GlcNAc(b1-3)Gal(b1-4)GlcNAc(b1-3)Gal(b1-4)GlcNAc
# Procedure, shortened: as §1
# [29] = target: Neu5Ac(a2-6)Gal(b1-4)GlcNAc(b1-3)Gal(b1-4)[Fuc(a1-3)]GlcNAc(b1-3)Gal(b1-4)[Fuc(a1-3)]GlcNAc
# Procedure, shortened: as §1
# [30] = target: Neu5Ac(a2-6)Gal(b1-4)GlcNAc(b1-3)GalNAc
# Procedure, shortened: as §1
# [31] = target: Neu5Ac(a2-6)Gal(b1-4)GlcNAc6S
# Procedure, shortened: as §1
# [32] = target: Neu5Ac(a2-6)GalNAc
# Procedure, shortened: as §1
# [33] = target: Neu5Ac(a2-6)GalNAc(b1-4)GlcNAc
# Procedure, shortened: as §1
# [34] = target: Neu5Ac(a2-6)GlcNAc(b1-4)GlcNAc
# Procedure, shortened: as §1
# [35] = target: Neu5Ac(a2-6)GlcNAc(b1-4)GlcNAc(b1-4)GlcNAc
# Procedure, shortened: as §1
# [36] = target: Neu5Ac(a2-8)Neu5Ac
# Procedure, shortened: as §1
# [37] = target: Neu5Ac(a2-8)Neu5Ac(a2-3)Gal(b1-4)Glc
# Procedure, shortened: as §1
# [38] = target: Neu5Ac(a2-8)Neu5Ac(a2-3)[GalNAc(b1-4)]Gal(b1-4)Glc
# Procedure, shortened: as §1
# [39] = target: Neu5Ac(a2-8)Neu5Ac(a2-8)Neu5Ac
# Procedure, shortened: as §1
# [40] = target: Neu5Ac(a2-8)Neu5Ac(a2-8)Neu5Ac(a2-3)Gal(b1-4)Glc
# Procedure, shortened: as §1
# [41] = target: Neu5Ac(a2-8)Neu5Ac(a2-8)Neu5Ac(a2-3)[GalNAc(b1-4)]Gal(b1-4)Glc
# Procedure, shortened: as §1
# [42] = target: Neu5Ac(a2-8)Neu5Ac(a2-8)Neu5Ac(a2-8)Neu5Ac(a2-3)[GalNAc(b1-4)]Gal(b1-4)Glc
# Procedure, shortened: as §1
# [43] = target: Neu5Ac(b2-6)Gal(b1-4)GlcNAc
# Procedure, shortened: as §1
# [44] = target: Neu5Ac(b2-6)GalNAc
# Procedure, shortened: as §1
# [45] = target: Neu5Ac9Ac(a2-3)Gal(b1-3)GlcNAc
# Procedure, shortened: as §1
# [46] = target: Neu5Ac9Ac(a2-3)Gal(b1-4)GlcNAc
# Procedure, shortened: as §1
# [47] = target: Neu5Ac9Ac(a2-6)Gal(b1-4)GlcNAc
# Procedure, shortened: as §1
# [48] = target: Neu5Gc(a2-3)Gal(b1-3)GlcNAc
# Procedure, shortened: as §1
# [49] = target: Neu5Gc(a2-3)Gal(b1-3)[Fuc(a1-4)]GlcNAc
# Procedure, shortened: as §1
# [50] = target: Neu5Gc(a2-3)Gal(b1-4)Glc
# Procedure, shortened: as §1
# [51] = target: Neu5Gc(a2-3)Gal(b1-4)GlcNAc
# Procedure, shortened: as §1
# [52] = target: Neu5Gc(a2-3)Gal(b1-4)[Fuc(a1-3)]GlcNAc
# Procedure, shortened: as §1
# [53] = target: Neu5Gc(a2-6)Gal(b1-4)GlcNAc
# Procedure, shortened: as §1
# [54] = target: Neu5Gc(a2-6)GalNAc
# Procedure, shortened: as §1
# [55] = target: Neu5Gc(b2-6)Gal(b1-4)GlcNAc
# Procedure, shortened: as §1
binder,measurement,setting,value
"Gal 3 (Homo sapiens), P17931 (protein) MADNFSLHDALSGSGNPNPQGWPGAWGNQPAGAGGYPGASYPGAYPGQAPPGAYPGQAPPGAYHGAPGAYPGAPAPGVYPGPPSGPGAYPSSGQPSAPGAYPATGPYGAPAGPLIVPYNLPLPGGVVPRMLITILGTVKPNANRIQLDFQRGNDVAFHFNPRFNENNRRVIVCNTKLDNNWGREERQSVFPFESGKPFKIQVLVEPDHFKVAVNDAHLLQYNHRVKKLNEISKLGISGDIDLTSASYTMI",glycan array binding signal (z-score),[1],-0.15
same,glycan array binding signal (z-score),[2],-0.189
same,glycan array binding signal (z-score),[3],-0.144
same,glycan array binding signal (z-score),[4],-0.188
same,glycan array binding signal (z-score),[5],-0.183
same,glycan array binding signal (z-score),[6],-0.201
same,glycan array binding signal (z-score),[7],-0.201
same,glycan array binding signal (z-score),[8],-0.199
same,glycan array binding signal (z-score),[9],-0.2
same,glycan array binding signal (z-score),[10],-0.202
same,glycan array binding signal (z-score),[11],-0.166
same,glycan array binding signal (z-score),[12],-0.189
same,glycan array binding signal (z-score),[13],-0.197
same,glycan array binding signal (z-score),[14],-0.192
same,glycan array binding signal (z-score),[15],-0.191
same,glycan array binding signal (z-score),[16],-0.198
same,glycan array binding signal (z-score),[17],-0.198
same,glycan array binding signal (z-score),[18],-0.195
same,glycan array binding signal (z-score),[19],-0.134
same,glycan array binding signal (z-score),[20],-0.19
same,glycan array binding signal (z-score),[21],-0.143
same,glycan array binding signal (z-score),[22],-0.201
same,glycan array binding signal (z-score),[23],-0.199
same,glycan array binding signal (z-score),[24],-0.191
same,glycan array binding signal (z-score),[25],-0.197
same,glycan array binding signal (z-score),[26],1.03
same,glycan array binding signal (z-score),[27],0.21
same,glycan array binding signal (z-score),[28],1.65
same,glycan array binding signal (z-score),[29],-0.162
same,glycan array binding signal (z-score),[30],-0.189
same,glycan array binding signal (z-score),[31],-0.197
same,glycan array binding signal (z-score),[32],-0.205
same,glycan array binding signal (z-score),[33],-0.18
same,glycan array binding signal (z-score),[34],-0.188
same,glycan array binding signal (z-score),[35],-0.187
same,glycan array binding signal (z-score),[36],-0.165
same,glycan array binding signal (z-score),[37],0.039
same,glycan array binding signal (z-score),[38],-0.198
same,glycan array binding signal (z-score),[39],-0.196
same,glycan array binding signal (z-score),[40],-0.173
same,glycan array binding signal (z-score),[41],-0.188
same,glycan array binding signal (z-score),[42],-0.168
same,glycan array binding signal (z-score),[43],-0.176
same,glycan array binding signal (z-score),[44],-0.151
same,glycan array binding signal (z-score),[45],-0.185
same,glycan array binding signal (z-score),[46],-0.197
same,glycan array binding signal (z-score),[47],-0.206
same,glycan array binding signal (z-score),[48],-0.17
same,glycan array binding signal (z-score),[49],-0.186
same,glycan array binding signal (z-score),[50],-0.199
same,glycan array binding signal (z-score),[51],-0.185
same,glycan array binding signal (z-score),[52],-0.178
same,glycan array binding signal (z-score),[53],-0.193
same,glycan array binding signal (z-score),[54],-0.201
same,glycan array binding signal (z-score),[55],-0.164
